Laboratory results taken from the supplement of paper PMC7826260.
The list shows a part of the results. Each Rep nickase domain was tested in vitro on the same pool of single strands for 1 h at 37 °C with 3 µM enzyme; only the middle of the 90-letter strands is printed. A value is the log2 ratio of uncut reads to the pool without enzyme; the lower, the more was cut; hits are not called. The scaling is to total reads; values above 0 arise when much of the pool is cut.

Experiments:
Experiment in all cases: uncleaved DNA left, log2 of reads against the no-enzyme library (log2 ratio); higher = less cleavage (more negative = more Rep cleavage of the k-mer); sequences stand for … in CTCGTCCG…ACCGGAGA
[1] = test system: T1, Rep nickase domain of Muscovy duck circovirus
T1 sequence (residues 1-111, tag not shown): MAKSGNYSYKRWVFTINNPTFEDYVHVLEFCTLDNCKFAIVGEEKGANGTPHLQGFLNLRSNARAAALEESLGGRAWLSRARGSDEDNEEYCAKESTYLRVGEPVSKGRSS
Description: (§1)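 A pool of 90-nt single-stranded DNAs with seven random bases just before the constant AC of the nick site (name = the seven bases) was cut by 3 µM recombinant His6-SUMO-tagged Rep nickase domain (300 nM DNA, 50 mM HEPES pH 8.0, 50 mM NaCl, 1 mM MnCl2, 1 h, 37 °C, three replicates). Uncut DNA was amplified and sequenced.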

[2] = test system: T2, Rep nickase domain of banana bunchy top virus
T2 sequence (residues 1-94, tag not shown): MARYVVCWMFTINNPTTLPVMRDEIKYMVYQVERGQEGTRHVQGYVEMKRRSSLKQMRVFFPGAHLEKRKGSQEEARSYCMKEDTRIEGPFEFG
Description: as §1

[3] = test system: T3, Rep nickase domain of cabbage leaf curl virus
T3 sequence (residues 1-116, tag not shown): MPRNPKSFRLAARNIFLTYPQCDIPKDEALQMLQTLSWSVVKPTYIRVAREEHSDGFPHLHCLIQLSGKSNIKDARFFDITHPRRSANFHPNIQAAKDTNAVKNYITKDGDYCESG
Description: as §1

[4] = test system: T4, Rep nickase domain of chickpea chlorotic dwarf virus
T4 sequence (residues 1-124, tag not shown): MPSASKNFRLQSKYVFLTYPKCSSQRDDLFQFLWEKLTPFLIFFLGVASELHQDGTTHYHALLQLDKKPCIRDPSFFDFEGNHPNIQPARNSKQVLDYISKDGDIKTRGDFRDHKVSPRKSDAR
Description: as §1

[5] = test system: T5, Rep nickase domain of faba bean necrotic yellows virus
T5 sequence (residues 1-98, tag not shown): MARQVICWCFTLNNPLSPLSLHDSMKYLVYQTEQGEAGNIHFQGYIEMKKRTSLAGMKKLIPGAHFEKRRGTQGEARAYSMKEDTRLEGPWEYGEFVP
Description: as §1

[6] = test system: T6, Rep nickase domain of maize striate mosaic virus
T6 sequence (residues 1-117, tag not shown): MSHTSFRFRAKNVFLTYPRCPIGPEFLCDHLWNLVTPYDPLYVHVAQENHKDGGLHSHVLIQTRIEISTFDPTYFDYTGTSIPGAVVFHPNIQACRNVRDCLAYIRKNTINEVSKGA
Description: as §1

[7] = test system: T7, Rep nickase domain of porcine circovirus 2
T7 sequence (residues 2-116, tag not shown): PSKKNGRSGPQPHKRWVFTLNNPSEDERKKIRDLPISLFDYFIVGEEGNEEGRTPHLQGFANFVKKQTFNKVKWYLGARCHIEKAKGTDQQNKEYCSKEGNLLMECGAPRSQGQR
Description: as §1

[8] = test system: T8, Rep nickase domain of tomato golden mosaic virus
T8 sequence (residues 1-124, tag not shown): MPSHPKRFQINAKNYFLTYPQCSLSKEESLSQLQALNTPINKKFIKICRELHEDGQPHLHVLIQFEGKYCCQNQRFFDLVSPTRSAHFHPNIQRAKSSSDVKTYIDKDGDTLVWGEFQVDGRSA
Description: as §1

[9] = test system: T9, Rep nickase domain of tomato yellow leaf curl virus
T9 sequence (residues 1-136, tag not shown): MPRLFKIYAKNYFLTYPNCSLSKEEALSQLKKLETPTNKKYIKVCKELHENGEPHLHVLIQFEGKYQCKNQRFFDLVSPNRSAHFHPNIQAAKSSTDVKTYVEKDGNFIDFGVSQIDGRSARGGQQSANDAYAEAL
Description: as §1

[10] = test system: T10, Rep nickase domain of wheat dwarf virus
T10 sequence (residues 1-137, tag not shown): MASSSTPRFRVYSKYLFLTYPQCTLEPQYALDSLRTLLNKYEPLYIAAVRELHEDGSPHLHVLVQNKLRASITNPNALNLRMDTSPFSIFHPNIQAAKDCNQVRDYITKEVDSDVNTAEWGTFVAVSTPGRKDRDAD
Description: as §1

| Sequence | uncleaved DNA left (log2) [1] | uncleaved DNA left (log2) [2] | uncleaved DNA left (log2) [3] | uncleaved DNA left (log2) [4] | uncleaved DNA left (log2) [5] | uncleaved DNA left (log2) [6] | uncleaved DNA left (log2) [7] | uncleaved DNA left (log2) [8] | uncleaved DNA left (log2) [9] | uncleaved DNA left (log2) [10] |
| --- | --- | --- | --- | --- | --- | --- | --- | --- | --- | --- |
| CTCACTG | -0.0563 | -0.0873 | -0.0336 | 0.295 | -0.0203 | 0.86 | 0.0519 | 0.0468 | -0.0824 | 0.0564 |
| AACGCTA | -0.0333 | 0.021 | 0.0518 | -0.803 | -0.0348 | 0.732 | 0.00879 | 0.142 | -0.0518 | -0.13 |
| CGCCACG | -0.000262 | 0.0852 | -0.627 | -0.3 | 0.0802 | -0.698 | 0.149 | 0.0232 | 0.0437 | -0.157 |
| CCAGACC | 0.0357 | 0.0597 | 0.188 | 0.295 | 0.19 | -0.0218 | 0.0771 | 0.124 | -0.0108 | 0.0846 |
| CAAATGA | 0.038 | 0.078 | 0.00992 | -0.0663 | 0.0608 | -0.783 | 0.177 | 0.162 | 0.0245 | 0.06 |
| CATCTCG | -0.0028 | -0.0875 | -0.733 | -0.0604 | 0.124 | -0.866 | 0.158 | -0.0466 | 0.167 | 0.107 |
| CAAGTGG | 0.128 | -0.042 | -0.0557 | 0.373 | 0.0616 | -0.478 | 0.119 | 0.0457 | -0.0433 | -0.0464 |
| ACATTAG | 0.00129 | -0.0374 | -0.589 | 0.25 | 0.0394 | -0.654 | 0.131 | 0.0222 | 0.0171 | -0.0565 |
| TTCTGCA | -0.138 | -0.0381 | -0.581 | -1.18 | -0.0744 | -1.3 | -0.154 | -0.0797 | -0.108 | -0.109 |
| TGTTCAT | 0.00385 | 0.0496 | 0.302 | 0.438 | -0.0171 | 0.991 | -0.0991 | -0.0873 | 0.18 | 0.156 |
| AAGGGAA | 0.056 | 0.0781 | 0.36 | 1.17 | 0.0857 | 1.36 | 0.0998 | 0.0745 | -0.127 | -0.0393 |
| GGTAAGG | 0.231 | 0.122 | 0.563 | 1.26 | 0.145 | 1.57 | 0.275 | 0.152 | 0.155 | 0.285 |
| CCGGTAC | 0.00998 | -0.0311 | 0.235 | 0.275 | -0.0924 | 1.05 | 0.139 | 0.0381 | -0.0517 | 0.0643 |
| TACTAAT | -3.79 | -3.23 | -3.14 | -3.25 | -0.414 | -0.769 | -4.08 | -0.933 | -0.0418 | -0.668 |
| ATTTACC | -0.0582 | -0.031 | -0.318 | -2.51 | 0.07 | -0.701 | -1.2 | -0.0495 | -0.0407 | -0.139 |
| GAGCCTC | 0.0206 | 0.112 | 0.252 | 0.572 | -0.0901 | 0.948 | -0.183 | -0.0506 | 0.082 | 0.0475 |
| CGTCAGT | 0.00838 | 0.0114 | -0.0464 | -0.284 | -0.0055 | -0.413 | -0.226 | -0.0863 | 0.0139 | -0.0573 |
| GCCTGTC | 0.0674 | -0.0405 | 0.3 | 0.465 | 0.00409 | 0.121 | 0.0783 | 0.163 | -0.132 | -0.111 |
| TGTCAGC | -0.0821 | -0.00691 | 0.0717 | -0.17 | 0.0215 | -0.53 | 0.0816 | 0.0331 | 0.0713 | 0.0163 |
| CATAACG | 0.00779 | 0.0219 | -0.796 | -0.00571 | 0.0575 | -1.05 | 0.204 | -0.0502 | 0.0327 | -0.0165 |
| CTGATCT | -0.0689 | -0.0317 | 0.011 | -0.63 | -0.114 | 0.183 | -0.242 | -0.0717 | 0.0189 | 0.109 |
| CCTGCGG | 0.039 | 0.0564 | 0.508 | 1.36 | -0.0408 | 1.57 | 0.21 | 0.154 | -0.128 | 0.051 |
| TACTGTC | -0.0388 | -0.0274 | -0.113 | -0.116 | -0.0409 | 0.153 | -0.358 | -0.112 | -0.122 | -0.0164 |
| CCCGTGT | -0.188 | 0.00265 | -0.132 | -0.575 | -0.21 | -0.853 | -0.17 | -0.117 | -0.097 | -0.183 |
| AATGGCA | 0.121 | 0.0698 | -0.159 | -0.185 | 0.0744 | -0.633 | 0.157 | 0.113 | 0.0607 | 0.0136 |
| TGAGTAA | 0.0534 | 0.106 | 0.0475 | -0.0513 | 0.18 | 0.0823 | -0.0293 | 0.178 | 0.00197 | 0.13 |
| TCCACTG | 0.0161 | -0.0251 | -0.0714 | 0.371 | -0.118 | 1.05 | -0.0157 | -0.0937 | 0.00457 | 0.0366 |
| ATAGCCT | 0.0112 | -0.0316 | -0.212 | -1.93 | 0.00543 | -0.728 | 0.0185 | -0.0781 | 0.0633 | -0.057 |
| TCATGAT | -0.15 | 0.0288 | -0.667 | -1.53 | 0.0103 | 1.32 | -0.695 | 0.00313 | -0.147 | 0.0309 |
